In all, about 4,000 sequences were measured (“arbitrary fluorescence units”: median about 830, highest 2% from about 6,500 on). This part holds few or none of the hits.
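Further: Full-length recombinant human RUNX1 bound to double-stranded DNA microarray spots, detected with an Alexa488-labelled secondary antibody after the anti-RUNX1 primary, read as scanned spot fluorescence.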

UniProt Q01196, sequence (Q01196 whole entry): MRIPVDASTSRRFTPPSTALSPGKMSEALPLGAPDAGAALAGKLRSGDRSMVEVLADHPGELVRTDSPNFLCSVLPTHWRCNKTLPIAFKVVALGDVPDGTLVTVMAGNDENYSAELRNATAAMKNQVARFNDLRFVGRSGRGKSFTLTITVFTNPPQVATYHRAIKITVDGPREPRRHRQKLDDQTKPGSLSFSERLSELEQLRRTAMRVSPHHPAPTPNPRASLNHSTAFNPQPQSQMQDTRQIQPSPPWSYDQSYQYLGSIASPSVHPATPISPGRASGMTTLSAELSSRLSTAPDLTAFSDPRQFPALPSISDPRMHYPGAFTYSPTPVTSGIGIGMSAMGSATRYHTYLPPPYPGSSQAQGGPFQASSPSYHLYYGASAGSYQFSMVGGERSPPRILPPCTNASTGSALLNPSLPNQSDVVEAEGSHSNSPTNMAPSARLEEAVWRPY

The target of the assay is RUNX1 (UniProt Q01196). The experiment in a line: RUNX1 binding intensity (PBM fluorescence), RUNX1 alone (arbitrary fluorescence units); higher = stronger binding. Conditions: RUNX1 concentration 2 nM; ETS1 concentration 0 nM. As for the experimental part:
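gcPBM on 36-bp genomic-derived probes (partner site mutated) containing one RUNX1 site and no ETS1 site. Recombinant human RUNX1 (2 nM) was incubated alone or with ETS1 (25 nM) and detected by anti-RUNX1 antibody fluorescence. Values are medians over 4 replicate spots (not normalised). The probes sit in constant array flanks that are not printed.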
GCGATTCCCCCTTGGGGTTATAGCAACCACCTCCTC came in with an RUNX1 binding intensity of 794.
Under GCTGGGCCATGCTGCCACATGCACCGCATCTCTGGG stands 797; under GCTCTGTGGCCTCCCCAGAGGTCAGATCAGGCAATG, 782; under GGTGGACCTGTGGTTTGCAACACAGAAAGAGACTAT, 1640.
In turn, ACCCCAAGCCCACAAACCCACCTGAAGGAACCAACT returned an RUNX1 binding intensity of 1200.
With TCTCTTTCTGTGATGGAAATACATTGAGGTTTGCGA the figure was 840; with GGCCAAGAAAACCACTCAGAGGAGATCACAGGCCTG, 687; with GCATCTGCGGTTCAAGTGGCCACTGCCTGCCAGCCG, 1760.
Under AAAACAACTCCCATCCCCTCTCTCTCCACCACAGTC stands 1280; under CTCGCCGCAGAGACGCAGACGCGTCCTTACGGCGGG, 795; under CTACGACCTCCGTGATGCCTTGCGGTTGCTGTAGCC, 2440.
Under TTAGCACACCCTGGGTACACAGACCACAGCCTCCTC stands 1040; under CGTACCAAAAACCCACATGGTCAGGCAGTGACTCAC, 1000; under ATCGGCGGTCCCGCAGGTCCCGTATGTAGCGGACAG, 739.
For the sequence TCGTCTCTTCTGGATCCCTCCTGCACCGCCCACAGC, the RUNX1 binding intensity stood at 1130.
GAAGTGTGCTCTTACGGTACCTGCGGTTCGTTGCGC displayed an RUNX1 binding intensity of 783.
With CCTGACCTCCTCCTCCCCCTCCCGCCACAATTCCGC, the RUNX1 binding intensity was 1540.
With TGGAGCTGTTGCGGGGTCCGCGGGGAACTCTTGGCA, the RUNX1 binding intensity is 697.
The sequence GGCTTGCCAAGAGGCAATTTGAAGCCACAATAACAT yielded an RUNX1 binding intensity of 779.
In turn, CAGCCTTGCCGTAAGGCAGAGTTTGTGGTCAGACCG returned an RUNX1 binding intensity of 1110.
The sequence GAAGAGCAAAACCAAGTGAAGGAGACTTCACTAAGT yielded an RUNX1 binding intensity of 730.
Sequence TAGGACAGCGGTTTTTCAGTCCGGAGATTCCAGCCA displayed an RUNX1 binding intensity of 787.
With CTACCGGGAATGCAGCACCACGTAAAATGCGGTCGG the figure was 808; with CTCGTGGCCACATCTGGCGGTGCCCCGGCATCAGGT, 756; with TCCGGCCCCGCAGCGCTGTGAACTCCATCTCCCAGA, 878.
As for TCCCCCTTCCCACAGCTCCTCCTCCGCGTCCTCCCC, the RUNX1 binding intensity was found to be 1270.
In the case of TGGTGCACCACACACACGAGATAAAACAGAAAGCCT, the RUNX1 binding intensity stood at 872.
Under CCAGGCCTTCAGGACCACAGCGTCCGACATGCCCCG stands 737.
Under GGCTGCAGCAAGTGGGAAGGTGTGGCTTTGAGTCTC stands 708; under GTCGGTTTTTCTGTGGCTAGCGGATTTTTGGCACCA, 1200; under GGTGCCGCAGCTCCAGCCTCTCGGCAAGGGAGCGCT, 717.
With CTTAGCGCAAGAGGCGTGACCCAGGCGTACCGCAGG the figure was 693; with TGTTGTGGTTCCCGAGCTTCGTCCACGCCGGGTCTG, 1140.
Sequence GTCGCCGGGATCACCGCAAACGCTTGCTGCTTGCGC showed an RUNX1 binding intensity of 1190.
Under GCGGGCTATACGGTCCTCGGCTGCGGCGGGCACCAT stands 770.
With CAGTCTCCTTGCGCGTCACCTCTGTGACCGCTGTGC the figure was 1350; with GCCGGGCACTGCCTGTGGAGGCCGCAGCGGGTGCGC, 744; with CGGCCTCTTCAGGTCACCTGGCCCGTCGCGGTCCCG, 946.
Under GCTGCCTCTGCCGCAAAGATGCCCCCTTCAGCTGGA stands 759.
In turn, TGACTCACCTGCCTGTAGGTTGGTTTTCTGCATATC returned an RUNX1 binding intensity of 663.
CAGCTGAAGAAAGACCTGCCACCTCCACCACAAAGA: the RUNX1 binding intensity worked out at 1020.
Under ATTTTGAGGTTTAACTAGATATTATCTATTTACGGA stands 1010.
With GGTCTGAGCGGTGGAGGGAAGCAGACAGGCAGTGGG the figure was 724.
As to TCGCTAGCCACAGCCATTTTTGTACCCGGGGAGCCC, the RUNX1 binding intensity stood at 944.
AATACCCTGTGGTGGCCGCCGAAAGTGTGTCGGCGG: the RUNX1 binding intensity is 756.
In turn, AAGAGGCAATAAATACCAGAGTGAACCCACAAACCT came in with an RUNX1 binding intensity of 960.
With TCCTATATACTGCCGTTTGCCTCGCGGTTTCTTTCT the figure was 1720.
With TCCCCCACCGCACAGGCAAACCAGTTCCTCTTCTGC the figure was 1900; with CCTCTCTGTGGTTCTGCCTGGAATACGCAAGGCAGG, 1050.
With TGCGCTCGATTGTGGGCGGGGGCGCAAAGAGGCGCC the figure was 730; with GCTCTGTGGTTAGCAGGTGCAACCCACGCGGAGGGG, 1960; with TAGATCTTCATGGACGTGCCTCTCCCCTGCGGCCTG, 748.
For CTCCCCCGCACATAGCCCTGAACTGAGGCAGTCATC, the RUNX1 binding intensity turned out to be 947.
With GATCACAAAAACCACTCGTTTCCAGTCCACAGCTAG the figure was 883; with GGGTCCTTCAGGGTTTTGTGTCGAATCTGCGGCGGC, 721; with TGGGAACTTGCTGTGGAGGAGTGCATTGTGGGACTT, 789.
Take CTGGGTTGTGGCACTGAGCCAGCAAGTCCCCTGGGT: the RUNX1 binding intensity came to 697.
Under AGCGCTGCGGGGAGGGGGAGCAAGGACTGGACGAGA stands 848; under CAGGTTGTTGAGGAGGTGGAGAAACCGCAACCTCGT, 3390; under TGCCTTCTACTCCAGAACTCAGACCGCTGCCTTCTA, 960.
ACCTTGTGGCCTATTCTAACCCCAGCCCGGCAACCA came in with an RUNX1 binding intensity of 1160.
Consider AACAGCTTAGAAAGTAAGTGTGGCTTTGCTTAAGAC, for which the RUNX1 binding intensity was 738.
With GAAGCCGCACCGCCCCCCGCGCGCCGGCAAGCTCAC the figure was 851.

(Values after the supplement of paper PMC10681739.)
